Assay [1] concerns the target BRD4 BD1 (Homo sapiens (Human), UniProt O60885). Particulars: read-out: BRD4 Alpha IC50.
Assay [2] concerns MYC. The assay can be described thus: cells. Particulars: Homo sapiens, MV4-11, 4 h, read-out: Myc IC50 (μM).

The IC50 is the concentration that gives 50% inhibition. Regarding `CC(=O)N1CCc2c(c(Nc3ccc(-c4ccc(C)nc4)cc3)nn2C)C1` [Example 160, 3-[6-(1,5-dimethylpyrazol-4-yl)-3,4-dihydro-2H-quinolin-1-yl]-N-methyl-1-tetrahydropyran-4-yl-6,7-dihydro-4H-pyrazolo[4,3-c]pyridine-5-carboxamide], the results for the IC50 in assay [1] and in assay [2] were 3680 nM and 0.41 µM, respectively.
Regarding `CC(=O)Nc1ccc(-c2ccc(Nc3nn(C)c4c3CN(C(C)=O)CC4)cc2)cn1` [Example 163, 3-(7-(difluoromethyl)-6-(6-(methylcarbamoyl)pyridin-3-yl)-3,4-dihydroquinolin-1(2H)-yl)-N-methyl-1-(tetrahydro-2H-pyran-4-yl)-6,7-dihydro-1H-pyrazolo[4,3-c]pyridine-5(4H)-carboxamide], the figures for the IC50 in assay [1] and in assay [2] were 4140 nM and 0.44 µM, respectively.
Take `CC(=O)N1CCc2c(c(Nc3ccc(-c4cnn(CC(C)C)c4)cc3)nn2C)C1` [Example 164, 3-(6-(difluoromethyl)-5-(1-methyl-1H-pyrazol-4-yl)indolin-1-yl)-N-methyl-1-(tetrahydro-2H-pyran-4-yl)-6,7-dihydro-1H-pyrazolo[4,3-c]pyridine-5(4H)-carboxamide]: the IC50 in assay [1] turned out to be 5100 nM; in assay [2], 1.07 µM.
In the case of `CC(=O)N1CCc2c(c(Nc3ccc(-c4cc[nH]n4)cc3)nn2C)C1` [Example 169, 1-[1-methyl-3-[5-(1-methylpyrazol-4-yl)indolin-1-yl]-6,7-dihydro-4H-pyrazolo[4,3-c]pyridin-5-yl]ethanone], the results for the IC50 in assay [1] and in assay [2] were 11700 nM and 1.05 µM, respectively.
Consider `CC(=O)N1CCc2c(c(Nc3ccc(-c4ccn(C)n4)cc3)nn2C)C1` [Example 170, 1-[1-(cyclopropylmethyl)-3-[6-(1-methylpyrazol-4-yl)indolin-1-yl]-6,7-dihydro-4H-pyrazolo[4,3-c]pyridin-5-yl]ethanone], for which the IC50 was determined as 8250 nM in assay [1] and 0.52 µM in assay [2].
`CC(=O)N1CCc2c(c(Nc3ccc(-c4cn[nH]c4)cc3)nn2C)C1` [Example 185, (R)-1-[3-[5-(1,5-dimethylpyrazol-4-yl)indolin-1-yl]-1-tetrahydrofuran-3-yl-6,7-dihydro-4H-pyrazolo[4,3-c]pyridin-5-yl]ethanone]: the IC50 in assay [1] was found to be 11400 nM; in assay [2], 0.86 µM.
Regarding `CC(=O)N1CCc2c(c(Nc3cccc(C)c3)nn2C(C)C)C1` [Example 200, 1-[3-[3-ethyl-5-(1-methylpyrazol-4-yl)indolin-1-yl]-1-tetrahydrofuran-3-yl-6,7-dihydro-4H-pyrazolo[4,3-c]pyridin-5-yl]ethanone], the concentration for half-maximal inhibition (IC50) in assay [1] came to 15800 nM; in assay [2] it was 1.48 µM.
Taken in the same sequence, the figures for `CC(=O)N1CCc2c(c(Nc3cccc(C(=O)NC4CC4)c3)nn2CC2CC2)C1` [Example 221, 1-[3-[4-methyl-5-(1-methylpyrazol-4-yl)indolin-1-yl]-1-tetrahydrofuran-3-yl-6,7-dihydro-4H-pyrazolo[4,3-c]pyridin-5-yl]ethanone] were 6180 nM and 0.41 µM.
As to `CC(=O)N1CCc2c(c(Nc3cccc(C(F)(F)F)c3)nn2CC2CC2)C1` [Example 223, 1-[3-[N-benzyl-4-(1-methylpyrazol-4-yl)anilino]-1-[(3S)-tetrahydrofuran-3-yl]-6,7-dihydro-4H-pyrazolo[4,3-c]pyridin-5-yl]ethanone], the IC50 in assay [1] stood at 5110 nM; in assay [2] it was 0.5 µM.
For `CC(=O)N1CCc2c(c(Nc3cc(C(F)F)c(-c4cnn(C)c4)cc3F)nn2C2COC2)C1` [Example 224, 1-[1-methyl-3-[N-methyl-4-[1-methyl-3-(trifluoromethyl)pyrazol-4-yl]anilino]-6,7-dihydro-4H-pyrazolo[4,3-c]pyridin-5-yl]ethanone], the IC50 is 3460 nM in assay [1] and 0.69 µM in assay [2].
As for `CC(=O)N1CCc2c(c(Nc3cc(C(F)F)c(-c4cnn(C)c4)cc3F)nn2C2CCOCC2)C1` [Example 242, 1-[3-[7-(difluoromethyl)-6-(1-methylpyrazol-4-yl)-3,4-dihydro-2H-quinolin-1-yl]-1-tetrahydropyran-4-yl-6,7-dihydro-4H-pyrazolo[4,3-c]pyridin-5-yl]propan-1-one], the IC50 in assay [1] was determined as 2480 nM; in assay [2], 0.2 µM.
`CC(=O)N1CCc2c(c(Nc3ccc(-c4c[nH]nc4C(F)F)cc3F)nn2C2CCOC2)C1` (centres unmarked) [Example 246, 1-[3-[7-methyl-6-(1-methylpyrazol-4-yl)-3,4-dihydro-2H-quinolin-1-yl]-1-tetrahydropyran-4-yl-6,7-dihydro-4H-pyrazolo[4,3-c]pyridin-5-yl]ethanone]: the IC50 was found to be 4270 nM in assay [1] and 0.49 µM in assay [2].
On to `CC(=O)N1CCc2c(c(Nc3ccc(-c4oc(C)nc4C)cc3F)nn2C2CCOC2)C1` (centres unmarked) [Example 249, 3-[7-(difluoromethyl)-6-(2-methoxy-4-pyridyl)-3,4-dihydro-2H-quinolin-1-yl]-N-methyl-1-tetrahydropyran-4-yl-6,7-dihydro-4H-pyrazolo[4,3-c]pyridine-5-carboxamide], for which the IC50 in assay [1] turned out to be 2780 nM; in assay [2], 4.09 µM.
On to `CCC(=O)N1CCc2c(c(Nc3cc(C(F)F)c(-c4cnn(C)c4)cc3F)nn2C2CCOCC2)C1` [Example 252, 3-[6-(6-acetamido-3-pyridyl)-7-(difluoromethyl)-3,4-dihydro-2H-quinolin-1-yl]-N-methyl-1-tetrahydropyran-4-yl-6,7-dihydro-4H-pyrazolo[4,3-c]pyridine-5-carboxamide], for which the IC50 amounted to 4810 nM in assay [1] and 0.18 µM in assay [2].
With `CCC(=O)N1CCc2c(c(Nc3ccc(-c4cnn(C)c4)c(C(F)F)c3)nn2C2CCOC2)C1` (centres unmarked) [Example 254, N-methyl-3-[6-(1-methylpyrazol-4-yl)-7-(trifluoromethyl)-3,4-dihydro-2H-quinolin-1-yl]-1-tetrahydropyran-4-yl-6,7-dihydro-4H-pyrazolo[4,3-c]pyridine-5-carboxamide], the IC50 in assay [1] was found to be 2520 nM; in assay [2], 1.15 µM.
Take `Cn1cc(-c2cc(F)c(Nc3nn([C@H]4CCOC4)c4c3CN(C(N)=O)CC4)cc2C(F)F)cn1` [Example 257, 3-[7-chloro-6-(1-methylpyrazol-4-yl)-3,4-dihydro-2H-quinolin-1-yl]-N-methyl-1-tetrahydropyran-4-yl-6,7-dihydro-4H-pyrazolo[4,3-c]pyridine-5-carboxamide]: the IC50 in assay [1] was over 20000 nM; in assay [2] it was 0.1 µM.
`Cn1cc(-c2ccc(Nc3nn(C4CCOCC4)c4c3CN(C(N)=O)CC4)c(F)c2)cn1` [Example 259, N-methyl-3-[6-(1-methylpyrazol-4-yl)-7-vinyl-3,4-dihydro-2H-quinolin-1-yl]-1-tetrahydropyran-4-yl-6,7-dihydro-4H-pyrazolo[4,3-c]pyridine-5-carboxamide]: the results for the IC50 in assay [1] and in assay [2] were over 20000 nM and 4.72 µM, respectively.
For the molecule `CNC(=O)N1CCc2c(c(Nc3cc(C(F)F)c(-c4cnn(C)c4)cc3F)nn2C2CCOCC2)C1` [Example 260, 3-[7-ethyl-6-(1-methylpyrazol-4-yl)-3,4-dihydro-2H-quinolin-1-yl]-N-methyl-1-tetrahydropyran-4-yl-6,7-dihydro-4H-pyrazolo[4,3-c]pyridine-5-carboxamide], the IC50 in assay [1] was 11700 nM; in assay [2] it was 0.03 µM.
Turning to `CNC(=O)N1CCc2c(c(Nc3cc(C(F)F)c(-c4cnn(C)c4)cc3F)nn2[C@H]2CCOC2)C1` [Example 261, N-methyl-3-[6-(1-methylpyrazol-4-yl)-7-methylsulfonyl-3,4-dihydro-2H-quinolin-1-yl]-1-tetrahydropyran-4-yl-6,7-dihydro-4H-pyrazolo[4,3-c]pyridine-5-carboxamide], the results for the IC50 in assay [1] and in assay [2] were 14500 nM and 0.07 µM, respectively.
`CNC(=O)N1CCc2c(c(Nc3ccc(-c4cnn(C)c4)cc3F)nn2[C@H]2CCOC2)C1` [Example 262, 3-[7-cyano-4-methyl-6-(1-methylpyrazol-4-yl)-2,3-dihydroquinoxalin-1-yl]-N-methyl-1-tetrahydropyran-4-yl-6,7-dihydro-4H-pyrazolo[4,3-c]pyridine-5-carboxamide]: the IC50 in assay [1] is over 20000 nM; in assay [2], 1.21 µM.
In the case of `CNC(=O)N1CCc2c(c(Nc3ccc(-c4cnn(C)c4)cc3F)nn2C2CCOCC2)C1` [Example 263, 4-(5-acetyl-1-tetrahydropyran-4-yl-6,7-dihydro-4H-pyrazolo[4,3-c]pyridin-3-yl)-1-methyl-7-(1-methylpyrazol-4-yl)-2,3-dihydroquinoxaline-6-carbonitrile], the IC50 in assay [1] was over 20000 nM; in assay [2], 1.88 µM.
As to `CNC(=O)N1CCc2c(c(Nc3ccc(-c4cnn(C)c4)c(F)c3F)nn2C2CCOCC2)C1` [Example 264, (R)-4-(5-acetyl-1-tetrahydropyran-4-yl-6,7-dihydro-4H-pyrazolo[4,3-c]pyridin-3-yl)-1,2-dimethyl-7-(l-methylpyrazol-4-yl)-2,3-dihydroquinoxaline-6-carbonitrile], the IC50 in assay [1] was over 20000 nM; in assay [2] it was 0.95 µM.
Consider `CNC(=O)N1CCc2c(c(Nc3ccc(-c4cnn(C)c4C)cc3F)nn2C2CCOCC2)C1` [Example 267, (S)-3-[7-cyano-3,4-dimethyl-6-(1-methylpyrazol-4-yl)-2,3-dihydroquinoxalin-1-yl]-N-methyl-1-tetrahydropyran-4-yl-6,7-dihydro-4H-pyrazolo[4,3-c]pyridine-5-carboxamide], for which the IC50 is over 20000 nM in assay [1] and 0.6 µM in assay [2].
With `CNC(=O)N1CCc2c(c(Nc3cc(C#N)c(-c4cnn(C)c4)cc3F)nn2C2CCOCC2)C1` [Example 269, 1-[3-[4-methyl-6-(1-methylpyrazol-4-yl)-7-(trifluoromethyl)-2,3-dihydroquinoxalin-1-yl]-1-tetrahydropyran-4-yl-6,7-dihydro-4H-pyrazolo[4,3-c]pyridin-5-yl]ethanone], the IC50 in assay [1] was found to be 18000 nM; in assay [2], 0.22 µM.
For the molecule `CNC(=O)N1CCc2c(c(Nc3cc(C(F)F)c(-c4cnn(C)c4)cc3F)nn2C2CCS(=O)(=O)CC2)C1` [Example 273, (S)-1-[3-[3,4-dimethyl-6-(1-methylpyrazol-4-yl)-7-(trifluoromethyl)-2,3-dihydroquinoxalin-1-yl]-1-tetrahydropyran-4-yl-6,7-dihydro-4H-pyrazolo[4,3-c]pyridin-5-yl]ethanone], the half-maximal inhibitory concentration (IC50) in assay [1] came to 7880 nM; in assay [2], 0.1 µM.

(Values after patent publication US9763922B2 (priority 2014, dated 2017).)
